Target: T1, biotinylated IZ-hCD40L (biot-IZ-hCD40L) (human, UniProt P29965 113-261, biotinylated)
T1 construct: Biotinylated version of IZ-hCD40L, captured on a streptavidin SPR chip; not shown: N-terminal isoleucine zipper motif
T1 sequence (looked up): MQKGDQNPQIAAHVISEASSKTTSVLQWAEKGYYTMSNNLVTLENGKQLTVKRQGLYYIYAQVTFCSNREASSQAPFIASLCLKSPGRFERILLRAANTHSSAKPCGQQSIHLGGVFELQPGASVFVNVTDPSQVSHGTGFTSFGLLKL
Experiment: SPR, BMS-986004 on a biot-IZ-hCD40L surface, 1:1 Langmuir fit; avidity-influenced

B1: BMS-986004 (Fc fusion)
chain: EVQLLESGGGLVQPGGSLRLSCAASGFTFNWELMGWARQAPGKGLEWVSGIEGPGDVTYYADSVKGRFTISRDNSKNTLYLQMNSLRAEDTAVYYCVKVGKDAKSDYRGQGTLVTVSSAST[letters of human IgG1 Fc with changes left out]
notes: also called BMS2h-572-633-CT-L2; 2h-572-633-CT-L2
In the case of B1, the Kd is reported as under 1 nM.

Reference: patent US20170051059A1 (Bristol-Myers Squibb, published 2017)
